Experimental data as given in the supplement of paper PMC8728848.
This is one part of the list.

Legend:
Assay in all cases: glycan array binding signal (z-score within array); higher = stronger binding
Conditions in all cases: glycan notation: IUPAC condensed, linker removed
[1] = biological target: Fuc(a1-2)Gal(b1-4)[Fuc(a1-3)]GlcNAc(b1-2)Man(a1-6)[Fuc(a1-2)Gal(b1-4)[Fuc(a1-3)]GlcNAc(b1-2)Man(a1-3)]Man(b1-4)GlcNAc(b1-4)[Fuc(a1-6)]GlcNAc
In short: (§1)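 Glycan array data came from 3228 arrays in the Consortium for Functional Glycomics database, and only arrays with an available protein sequence were kept. Glycan names were put into IUPAC-condensed notation, and columns mapping to the same glycan were averaged. The binding signal is a within-array Z-score, averaged across arrays of one protein sequence run at different concentrations or buffers and across linkers. A negative Z-score can be read as non-binding.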

[2] = biological target: Fuc(a1-2)Gal(b1-4)[Fuc(a1-3)]GlcNAc(b1-2)[Fuc(a1-2)Gal(b1-4)[Fuc(a1-3)]GlcNAc(b1-4)]Man(a1-3)[Fuc(a1-2)Gal(b1-4)[Fuc(a1-3)]GlcNAc(b1-2)Man(a1-6)]Man(b1-4)GlcNAc(b1-4)GlcNAc
In short: as §1

[3] = biological target: Fuc(a1-2)Gal(b1-4)[Fuc(a1-3)]GlcNAc(b1-3)Gal(b1-4)[Fuc(a1-3)]GlcNAc
In short: as §1

[4] = biological target: Fuc(a1-2)Gal(b1-4)[Fuc(a1-3)]GlcNAc(b1-3)Gal(b1-4)[Fuc(a1-3)]GlcNAc(b1-3)Gal(b1-4)[Fuc(a1-3)]GlcNAc
In short: as §1

[5] = biological target: Fuc(a1-2)Gal(b1-4)[Fuc(a1-3)]GlcNAc(b1-3)GalNAc
In short: as §1

[6] = biological target: Fuc(a1-2)Gal(b1-4)[Fuc(a1-3)]GlcNAc(b1-3)[Neu5Ac(a2-6)Gal(b1-4)GlcNAc(b1-6)]Gal(b1-4)Glc
In short: as §1

[7] = biological target: Fuc(a1-2)Gal6S(b1-3)GlcNAc
In short: as §1

[8] = biological target: Fuc(a1-2)Gal6S(b1-3)GlcNAc6S
In short: as §1

Fuc(a1-2)Gal6S(b1-4)Glc = biological target: Fuc(a1-2)Gal6S(b1-4)Glc
In short: as §1

[9] = biological target: Fuc(a1-2)Gal6S(b1-4)Glc6S
In short: as §1

[10] = biological target: Fuc(a1-2)Gal6S(b1-4)GlcNAc
In short: as §1

Fuc(a1-2)[Gal(a1-3)]Gal = biological target: Fuc(a1-2)[Gal(a1-3)]Gal
In short: as §1

[11] = biological target: Fuc(a1-2)[Gal(a1-3)]Gal(b1-3)GalNAc
In short: as §1

[12] = biological target: Fuc(a1-2)[Gal(a1-3)]Gal(b1-3)GlcNAc
In short: as §1

[13] = biological target: Fuc(a1-2)[Gal(a1-3)]Gal(b1-3)GlcNAc(b1-2)Man(a1-3)[Fuc(a1-2)[Gal(a1-3)]Gal(b1-3)GlcNAc(b1-2)Man(a1-6)]Man(b1-4)GlcNAc(b1-4)GlcNAc
In short: as §1

[14] = biological target: Fuc(a1-2)[Gal(a1-3)]Gal(b1-3)GlcNAc(b1-2)Man(a1-3)[Fuc(a1-2)[Gal(a1-3)]Gal(b1-3)GlcNAc(b1-2)Man(a1-6)]Man(b1-4)GlcNAc(b1-4)[Fuc(a1-6)]GlcNAc
In short: as §1

[15] = biological target: Fuc(a1-2)[Gal(a1-3)]Gal(b1-3)GlcNAc(b1-3)GalNAc
In short: as §1

[16] = biological target: Fuc(a1-2)[Gal(a1-3)]Gal(b1-4)Glc
In short: as §1

[17] = biological target: Fuc(a1-2)[Gal(a1-3)]Gal(b1-4)GlcNAc
In short: as §1

[18] = biological target: Fuc(a1-2)[Gal(a1-3)]Gal(b1-4)GlcNAc(b1-2)Man(a1-3)[Fuc(a1-2)[Gal(a1-3)]Gal(b1-4)GlcNAc(b1-2)Man(a1-6)]Man(b1-4)GlcNAc(b1-4)GlcNAc
In short: as §1

[19] = biological target: Fuc(a1-2)[Gal(a1-3)]Gal(b1-4)GlcNAc(b1-2)Man(a1-3)[Fuc(a1-2)[Gal(a1-3)]Gal(b1-4)GlcNAc(b1-2)Man(a1-6)]Man(b1-4)GlcNAc(b1-4)[Fuc(a1-6)]GlcNAc
In short: as §1

[20] = biological target: Fuc(a1-2)[Gal(a1-3)]Gal(b1-4)GlcNAc(b1-3)GalNAc
In short: as §1

[21] = biological target: Fuc(a1-2)[Gal(a1-3)]Gal(b1-4)GlcNAc(b1-6)GalNAc
In short: as §1

[22] = biological target: Fuc(a1-2)[Gal(a1-3)]Gal(b1-4)[Fuc(a1-3)]Glc
In short: as §1

[23] = biological target: Fuc(a1-2)[Gal(a1-3)]Gal(b1-4)[Fuc(a1-3)]GlcNAc
In short: as §1

[24] = biological target: Fuc(a1-2)[Gal(a1-3)]Gal(b1-4)[Fuc(a1-3)]GlcNAc(b1-3)GalNAc
In short: as §1

[25] = biological target: Fuc(a1-2)[Gal(a1-4)]Gal(b1-4)GlcNAc
In short: as §1

[26] = biological target: Fuc(a1-2)[GalNAc(a1-3)]Gal
In short: as §1

[27] = biological target: Fuc(a1-2)[GalNAc(a1-3)]Gal(b1-3)GalNAc(a1-3)[Fuc(a1-2)]Gal(b1-4)GlcNAc
In short: as §1

[28] = biological target: Fuc(a1-2)[GalNAc(a1-3)]Gal(b1-3)GlcNAc
In short: as §1

[29] = biological target: Fuc(a1-2)[GalNAc(a1-3)]Gal(b1-3)GlcNAc(b1-2)Man(a1-3)[Fuc(a1-2)[GalNAc(a1-3)]Gal(b1-3)GlcNAc(b1-2)Man(a1-6)]Man(b1-4)GlcNAc(b1-4)GlcNAc
In short: as §1

[30] = biological target: Fuc(a1-2)[GalNAc(a1-3)]Gal(b1-3)GlcNAc(b1-2)Man(a1-3)[Fuc(a1-2)[GalNAc(a1-3)]Gal(b1-3)GlcNAc(b1-2)Man(a1-6)]Man(b1-4)GlcNAc(b1-4)[Fuc(a1-6)]GlcNAc
In short: as §1

[31] = biological target: Fuc(a1-2)[GalNAc(a1-3)]Gal(b1-3)GlcNAc(b1-3)GalNAc
In short: as §1

[32] = biological target: Fuc(a1-2)[GalNAc(a1-3)]Gal(b1-3)GlcNAc(b1-6)GalNAc
In short: as §1

[33] = biological target: Fuc(a1-2)[GalNAc(a1-3)]Gal(b1-4)Glc
In short: as §1

[34] = biological target: Fuc(a1-2)[GalNAc(a1-3)]Gal(b1-4)GlcNAc
In short: as §1

[35] = biological target: Fuc(a1-2)[GalNAc(a1-3)]Gal(b1-4)GlcNAc(b1-2)Man(a1-3)[Fuc(a1-2)[GalNAc(a1-3)]Gal(b1-4)GlcNAc(b1-2)Man(a1-6)]Man(b1-4)GlcNAc(b1-4)GlcNAc
In short: as §1

[36] = biological target: Fuc(a1-2)[GalNAc(a1-3)]Gal(b1-4)GlcNAc(b1-2)Man(a1-3)[Fuc(a1-2)[GalNAc(a1-3)]Gal(b1-4)GlcNAc(b1-2)Man(a1-6)]Man(b1-4)GlcNAc(b1-4)[Fuc(a1-6)]GlcNAc
In short: as §1

B1: RVL (Remusatia vivipara), B5LYJ9 (protein)
chain: MAKLLLFLLPAILGLLVPRSAVALGTNYLLSGQTLDTEGHLKNGDFDLVMQDDCNLVLYNGNWQSNTANNGRDCKLTLTDYGELVIKNGDGSTVWKSGAQSVKGNYAAVVHPDGRLVVLGPSVFKIDPWVRGLNSLRFRNIPFTNNLLFSGQVLYGDGRLTAKNHQLVMQGDCNLVLYGGKYGWQSNTHGNGEHCFLRLNHKGELIIKDDDFKTIWSSRSSSKQGEYVLILQDDGFGVIYGPAIFETSSKRSIAAS
[1]
  glycan array binding signal (z-score): 9.79
[2]
  glycan array binding signal (z-score): 0.086
[3]
  glycan array binding signal (z-score): -0.21
[4]
  glycan array binding signal (z-score): -0.151
[5]
  glycan array binding signal (z-score): 0.52
[6]
  glycan array binding signal (z-score): -0.316
[7]
  glycan array binding signal (z-score): -0.266
[8]
  glycan array binding signal (z-score): 0.483
Fuc(a1-2)Gal6S(b1-4)Glc
  glycan array binding signal (z-score): -0.251
[9]
  glycan array binding signal (z-score): -0.151
[10]
  glycan array binding signal (z-score): 0.052
Fuc(a1-2)[Gal(a1-3)]Gal
  glycan array binding signal (z-score): -0.241
[11]
  glycan array binding signal (z-score): -0.134
[12]
  glycan array binding signal (z-score): 0.119
[13]
  glycan array binding signal (z-score): 0.126
[14]
  glycan array binding signal (z-score): -0.642
[15]
  glycan array binding signal (z-score): -0.03
[16]
  glycan array binding signal (z-score): -0.124
[17]
  glycan array binding signal (z-score): -0.261
[18]
  glycan array binding signal (z-score): 0.241
[19]
  glycan array binding signal (z-score): 1.39
[20]
  glycan array binding signal (z-score): 0.041
[21]
  glycan array binding signal (z-score): -0.215
[22]
  glycan array binding signal (z-score): -0.32
[23]
  glycan array binding signal (z-score): 0.086
[24]
  glycan array binding signal (z-score): -0.037
[25]
  glycan array binding signal (z-score): -0.051
[26]
  glycan array binding signal (z-score): -0.204
[27]
  glycan array binding signal (z-score): -0.113
[28]
  glycan array binding signal (z-score): -0.073
[29]
  glycan array binding signal (z-score): -0.107
[30]
  glycan array binding signal (z-score): 0.29
[31]
  glycan array binding signal (z-score): 0.198
[32]
  glycan array binding signal (z-score): -0.274
[33]
  glycan array binding signal (z-score): -0.268
[34]
  glycan array binding signal (z-score): -0.203
[35]
  glycan array binding signal (z-score): -0.259
[36]
  glycan array binding signal (z-score): 0.011
